PubChem BioAssay AID602332 (National Center for Advancing Translational Sciences (NCATS), 2012)
Out of some 420,000 compounds screened, about 75 (0.02%) were called active. Inconclusive means that the source gave no clear call. Such entries were picked first, then a sample of the others. The call rests on the fitted dose curve; in most records, active means well fitted activation curve with a large enough effect; inconclusive means small, poorly fitted or top-dose-only effect; inactive means no such curve, though single readings can be large or run the other way. A potency beside an inconclusive call is a rough fit, not a confirmed value.

experiment: qHTS for Inducers of the Endoplasmic Reticulum Stress Response (ERSR) in Human Glioma: qHTS; conditions: U87-MG GRP78 promoter luciferase reporter, 16 h; activation: active compounds read high; further: nearly all actives have a fitted effect of over 35% in size; on activation: % of control where 0% means no effect
How it was run: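 Stably transfected U87-MG glioma cells carrying a GRP78-based luciferase sensor; 16 h compound incubation. Luminescence end-point read 10 min after Bright-Glo addition at room temperature.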
Potency means the concentration at half of the fitted maximal effect; tags describe the fitted curve by direction and shape.

activation, inactive:
O=C(O)c1cc(Oc2ccc([N+](=O)[O-])cc2)cc(Oc2ccc([N+](=O)[O-])cc2)c1 2.53%, COc1ccc(C2C(C#N)=C(N)Nc3nc4ccccc4n32)cc1 (stereo unspecified) -0.451%, O=C(Nc1nc2ccccc2[nH]1)c1ccc(F)cc1 -9.56%, COc1cc(-c2n[nH]c(=S)n2-c2ccc(Br)cc2)cc(OC)c1OC 0.438%, COc1cc(C(=O)O[C@H]2C/C(C)=C/CC/C(C)=C/[C@@H](O)C2C(C)C)ccc1O (stereo partly specified) -7.56%, CCCNC(=O)c1cnn2c(C(F)F)cc(-c3ccccc3)nc12 -0.187%, CCCCOc1ccc(/C=N/NC(=O)c2nnn(-c3nonc3N)c2CN2CCCCCC2)cc1 -4.29%, Fc1ccccc1C1c2cccn2CCN1C(=S)Nc1cccc(Br)c1 (stereo unspecified) -1.12%, CC(C)CN(CC(C)C)CC(O)Cn1cc(/C=C/C(=O)c2ccccc2)c2ccccc21 (stereo unspecified) -4.59%, O=C(NCCCN1CCCC1=O)c1ccc(OC(F)(F)F)cc1 0.886%, Cc1cc(C)c(NC(=O)c2sc3nc4c(cc3c2N)C(=O)CC(C)(C)C4)c(C)c1 -3.44%, CCOc1cc(NC(=S)Nc2ccccc2OC)c(OCC)cc1NC(=O)c1ccccc1C -6.31%, CCS(=O)(=O)n1nc(-c2ccco2)nc1SC -6.79%, COC(=O)c1cc(CNC(=O)c2cccc(F)c2)cc(NC(=O)c2ccccc2OC)c1 -0.994%, CC1(C)Cc2cccc(C(=O)Nc3ccc(Cl)cc3)c2O1 -4.46%, Cc1cccc(N2CCN(C(=O)c3ccc(CS(=O)c4cccc(Cl)c4)o3)CC2)c1C (stereo unspecified) -6.14%, O=C(Nc1ccccc1)c1ccc(-c2ccc([N+](=O)[O-])cc2)o1 8.13%, O=C(OCc1cccc(Cl)c1)c1cc([N+](=O)[O-])ccc1N1CCOCC1 -2.92%, O=C(Oc1ccc(OC(=O)N2CCOCC2)cc1)c1ccccc1 -0.743%, Cc1cc(NC(=O)CCC(=O)N(c2ccccc2)C(C(=O)NC2CCCC2)c2cccs2)no1 (stereo unspecified) -3.1%

Potency, active:
C=C(C)C1CC=C(C)C(O)C1 (stereo unspecified) 11.2 µM

Potency, inconclusive:
O=C(NC1CCCC1)c1cc(-c2cccs2)on1 17.8 µM [activator, partial curve, poor fit], Cc1c(/C=N/Nc2nc3ccccc3[nH]2)c2ccccc2n1C 28.2 µM [activator, single point], Cc1cc(C)cc(NC(=O)CCc2c(C)nn(-c3ccc(N4CCOCC4)nn3)c2C)c1 28.2 µM [activator, single point], COc1cccc(/C=C/C(=O)NCc2ccc3c(c2)OCO3)c1 50.1 µM [activator, single point], N#C/C(=C/c1ccc(N2CCCCCC2)o1)c1ccc(Cl)cc1 10 µM [activator, single point], c1ccc2cc(-c3cc4ccccn4c3)ccc2c1 2 µM [activator, partial curve, poor fit], CC1=C(/C=C/C(C)=C/C=C/C(C)=C/C(=O)Nc2ccc(O)cc2)C(C)(C)CCC1 44.7 µM [activator, single point], CCN(Cc1ccccc1)c1cc2c(c3c1ccn3C)C1CCC2C1 (stereo unspecified) 50.1 µM [activator, single point], COc1ccc(/C=C/C(=O)c2cccs2)cc1OC 39.8 µM [activator, partial curve, poor fit], Cc1cc(C(=O)CCl)c(C)n1CCc1ccc(Cl)cc1 28.2 µM [activator, single point], CC(C)Cn1c([N+](=O)[O-])nc2c1c(=O)[nH]c(=O)n2C 28.2 µM [activator, single point], O=C1CN(C(=O)COC(=O)c2ccc([N+](=O)[O-])s2)c2ccccc2N1 28.2 µM [activator, single point], CC(C)C(C(=O)O)N1C(=O)/C(=C/c2ccc(Br)cc2)SC1=S (stereo unspecified) 25.1 µM [activator, partial curve, poor fit], Cc1nnc(SCc2nc3ccccc3s2)n1-c1ccccc1 11.2 µM [activator, single point], CN(C)c1ccc(-c2ccnc3c2CC(C)(C(=O)Nc2ccc(Cl)c(C(F)(F)F)c2)O3)cc1 (stereo unspecified) 50.1 µM [activator, single point], CCOC(=O)COc1ccc(/C=C2\NC(=S)N(CC)C2=O)cc1 39.8 µM [activator, partial curve, poor fit], CCn1c(C(=O)OC)cc2c1ccn2-c1ccc(F)cc1 14.1 µM [activator, single point], O=C1C(=O)N(Cc2ccc(Cl)c(Cl)c2)c2ccccc21 50.1 µM [activator, single point], Cc1sc(NC(=O)CCl)c(C(=O)c2ccccc2)c1C 28.2 µM [activator, single point], COc1cccc(/C=C2\SC(=N)N(c3ccc(F)cc3)C2=O)c1 50.1 µM [activator, single point], COc1ccc(C(=S)Nc2ccccc2)cc1 28.2 µM [activator, single point], CCCOc1ccc(-c2cc(C(F)(F)F)c(C#N)c(SCCC(=O)O)n2)cc1 44.7 µM [activator, single point], CCOC(=O)C1CCN(S(=O)(=O)c2ccc(OCC(=O)OC)cc2)CC1 28.2 µM [activator, single point], COCCn1c(C)cc(C(=O)CSc2nc3ccccc3c(=O)[nH]2)c1C 3.16 µM [activator, single point], Cc1cc(C(=O)N/N=C/c2ccc(Cl)c([N+](=O)[O-])c2)c(C)n1-c1ccc(F)cc1 12.6 µM [activator, full curve, poor fit], COc1ccccc1N1CCN(S(=O)(=O)/C=C/c2ccccc2)CC1 11.2 µM [activator, single point], Cc1ccc(C(=O)O/N=C\c2ccc(N3CCCCC3)c([N+](=O)[O-])c2)cc1 50.1 µM [activator, single point], Cc1ccc(C)c(Sc2ccc(NC(=O)CCl)cc2)c1 44.7 µM [activator, single point], COc1c(O)ccc(/C=N/NC(=O)c2ccc3c(c2)OCCO3)c1[N+](=O)[O-] 10 µM [activator, single point], CC(C)C[C@H](NC(=O)c1nc[nH]c1C(=O)NCC(=O)OCc1ccccc1)C(=O)OCc1ccccc1 50.1 µM [activator, single point], COC1=C2C[C@H](C)C[C@H](OC)[C@@H](O)[C@@H](C)C=C(C)[C@H](OC(N)=O)[C@@H](OC)C=CC=C(C)C(=O)NC(=CC1=O)C2=O 6.31 µM [activator, full curve, poor fit], Oc1ccc(NCc2ccccc2OCc2ccccc2F)cc1 8.91 µM [activator, partial curve, poor fit], CSCc1nc2sc(C(=O)Nc3nc(C)cs3)c(C)c2c(=O)[nH]1 25.1 µM [activator, partial curve, poor fit], CC/C(C)=N\Nc1nc(-c2cc3cc(OC)ccc3oc2=O)cs1 28.2 µM [activator, full curve, poor fit], Clc1ccccc1-c1cncnc1NCCN1CCOCC1 44.7 µM [activator, partial curve, poor fit], CCc1ccc(CNc2ccc(O)cc2)cc1 28.2 µM [activator, single point], O=C(O)c1ccc2c(=O)n3c(nc2c1)/C(=C/c1ccc(OC(F)F)cc1OC(F)F)CC3 50.1 µM [activator, single point], Cc1cccc(C(=O)Oc2ccc(/C=N/O)cc2)c1 14.1 µM [activator, partial curve, poor fit], O=C(Nc1ccccc1C(F)(F)F)c1ccc2oc(=O)c(S(=O)(=O)c3ccc(F)cc3)cc2c1 63.1 µM [activator, partial curve, poor fit], COC(=O)CN1C(=O)CC(C)(C)S(=O)c2ccccc21 (stereo unspecified) 17.8 µM [activator, single point], Cc1cccc(Cc2cnc(N3C(=N)SC(C)C3=O)s2)c1 (stereo unspecified) 44.7 µM [activator, single point], Cc1ccccc1NC(=S)N/N=C/c1ccc(O)cc1O 2.82 µM [activator, full curve, poor fit], O=C1c2c(O)cc(O)cc2OC(c2ccc(O)c(O)c2)C1O (stereo unspecified) 28.2 µM [activator, partial curve, poor fit], COc1ccc(Nc2oc(COc3ccc(C)cc3)nc2C#N)cc1 5.01 µM [activator, single point], COC(=O)C(C)Sc1nc2c(c(=O)[nH]c(=O)n2C)n1CCC(C)C (stereo unspecified) 44.7 µM [activator, partial curve, poor fit]
